Data as given in PubChem BioAssay AID445 (National Center for Advancing Translational Sciences (NCATS), 2006).
About 40 (0.04%) of roughly 110,000 compounds were called active. This list was built around the results that the source calls inconclusive (neither active nor inactive); the mix of calls is not that of the screen. Calls come from the whole dose curve; as a rule, active = well fitted curve in the direction sought with a large enough effect in the signal ratio (not every such curve was filed as active); inconclusive = small, poorly fitted or top-dose-only effect, or a change in a side signal; inactive = flat fitted curve, though single readings scatter; the % refers to the signal ratio.

Experiment: IkB Signaling;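 note: 0% = basal untreated cells and 100% = reference inhibitor full response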
Settings: ABC-DLBCL IkBa-CBG/CBR dual luciferase ratio (green luciferase fused to IkBa over red control in OCI-Ly3 lymphoma cells), 4 h; IkBa stabilization activation: at 57.1 µM (top of the series), scaled: untreated 0%, proteasome inhibitor 100% unless noted
Summary of the method: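 Luminescence ratio of IκBα-fused green versus native red beetle luciferase in OCI-Ly3 cells, 4 h post-doxycycline with compound; red signal alone, scaled from basal (0%) to zero light (-100%), flagged nonspecific or cytotoxic effects.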
In the case of `CCn1cc(C(=O)OCc2ccccc2)c(=O)c2ccc(C)nc21`, the “IkBa stabilization activation” value is reported as inactive: -1.68%.
For `COc1ccc(-c2nn(C)c3sc(C(=O)Nc4cc(OC)c(OC)c(OC)c4)cc23)cc1OC`, the IkBa stabilization activation was inconclusive: 16.3% [signal inhibitor].
With `CCCN(C(=O)c1c(C)oc2ncn(CC(C)C)c(=O)c12)c1ccccc1C` the IkBa stabilization activation was inconclusive: 2.22% [signal inhibitor].
With `COc1cccc(CN2CCCN(Cc3ccc(F)cc3)S2(=O)=O)c1` the IkBa stabilization activation was inconclusive: 1.65% [signal inhibitor].
With `COc1ccc2c(c1OC)C(=O)N(c1ccccn1)C2` the “IkBa stabilization activation” value was inactive: 4.03%.
For `CCCOc1ccc(C(=O)Nc2cc(-c3nc4ccccc4[nH]3)ccc2C)cc1`, the “IkBa stabilization activation” value was inactive: 0.923%.
With `COc1cccc(Cn2c(=O)c(-c3cccc(C#N)c3)nc3cnc(N4CCN(C)CC4)nc32)c1` the IkBa stabilization activation was inactive: 0.018% [at 11.4 µM, scaled: untreated 0%, proteasome inhibitor 100%].
For `COc1ccc(C)cc1NC(=O)C1CCN(S(=O)(=O)Cc2ccccc2)CC1`, the IkBa stabilization activation was inconclusive: 0.122% [signal inhibitor].
For `COc1cccc(CNC(=O)c2cc3cc(C)ccc3n2C)c1`, the “IkBa stabilization activation” value was inactive: -1.52%.
With `Cc1ccccc1OCc1nnc(SCc2cc(=O)c3cc(F)ccc3[nH]2)n1C` the IkBa stabilization activation was inconclusive: -0.289% [signal inhibitor].
In the case of `Cc1ccc2c(c1)c1c(c(=O)n(Cc3ccccc3)c(=O)n1Cc1cccc(F)c1)n2C`, the “IkBa stabilization activation” value is reported as inactive: 0.959%.
With `COc1ccc(-c2ccc(CCC(=O)O)n2-c2ccccc2C(F)(F)F)cc1` the IkBa stabilization activation was inconclusive: 4.01% [signal inhibitor].
In the case of `COc1ccc(-c2nc3ccccc3o2)cc1NC(=O)c1cc([N+](=O)[O-])ccc1N1CCOCC1`, the IkBa stabilization activation is reported as inconclusive: 5.64% [signal inhibitor].
In the case of `CCC1CN(CC(=O)NCc2cccc(Br)c2)c2ccccc2S1` (centres undefined), the IkBa stabilization activation is reported as inconclusive: 1.06% [signal inhibitor].
For `COC(=O)Cc1c(C)nc2nc(NCc3ccc(Br)cc3)[nH]n2c1=O`, the IkBa stabilization activation was inconclusive: 0.205% [signal inhibitor].
With `C[C@@H]1NCC[C@H](CC(=O)O)[C@H]1CC(=O)O` the IkBa stabilization activation was inactive: -0.641% [at 11.4 µM, scaled: untreated 0%, proteasome inhibitor 100%].
In the case of `O=C(CCCCCn1c(=O)[nH]c2ccccc2c1=O)NCCCN1CCN(c2ccccc2F)CC1`, the IkBa stabilization activation is reported as inconclusive: 11.2% [signal inhibitor].
In the case of `CCOC(=O)CN(Cc1ccccc1)C(C(=O)NC1CCCCC1)c1ccccc1` (centres undefined), the IkBa stabilization activation is reported as inconclusive: -3.33% [signal inhibitor].
With `O=C1C(c2ccncc2)=C(O)c2ccccc21` the IkBa stabilization activation was inconclusive: 6.79% [signal inhibitor].
